Assay results: the supplement of paper PMC3334620
In all, about 33,000 sequences were measured (“E-score (-0.5 to 0.5)”: median about -0.054, highest 2% from about 0.39 on). The list shows a part of the results.

target: Ylr278c (UniProt Q05854); test: PBM E-score (8-mer binding enrichment) (E-score (-0.5 to 0.5)); higher = stronger / more preferred TF binding; most listed sequences are background and not binding sites; settings: protein concentration: 200 nM; construct: GST-DNA-binding domain
How it was run: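 Yeast transcription factors, full-length or as DNA-binding domains, were expressed with a GST tag using PURExpress in vitro transcription/translation. At about 100-200 nM they were applied to universal all-10-mer Agilent arrays, double-stranded by primer extension on fresh or once-stripped slides. Fluorescent anti-GST detected bound protein, and masliner normalised the scans. E-scores for ungapped eight-base words, pooled with reverse complements, came from the Universal PBM Analysis Suite.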

Sequence	PBM E-score
ATTGCGCC	0.0625
AGAACACA	-0.0824
AGGTTAGC	-0.165
CTATGTGA	-0.127
CGAACATA	0.00022
CAGTCAAG	-0.309
GGATCCCA	0.106
GCACCTAC	-0.0908
TAGACCAA	-0.167
AGAAATGA	-0.167
TACCAGAA	-0.0232
ATGACCCC	0.0304
CGTTCGAC	-0.121
ACCGACTC	0.107
CTATTACC	-0.0398
ACGGGTAC	-0.231
GGGCTGAC	0.0494
AAGTAGAG	-0.234
TAAAATGA	-0.0221
CCAGTGGC	-0.234
AAGGTCGG	0.227
AATAAGTG	-0.242
AGCTTCTA	-0.0932
ACACATCT	-0.00913
CCCACTAA	-0.0708

Sequence	PBM E-score
CGTGGCAC	-0.108
CAGAGTCC	0.0837
CCCAGCTC	0.0332
GAATCCTC	-0.16
CCCTAGCC	-0.232
CTTTAGGC	-0.107
ACGTACAA	-0.164
GCCCGGCA	0.255
ATGACGCA	-0.168
CTCAACGA	-0.15
ATGGGAGG	-0.0262
GCTTTCCC	0.124
CTTGTACC	-0.145
CGGGTGTA	0.182
TACAGCGA	-0.268
AAATGGCT	-0.137
ATTCAATG	-0.0726
AAGGTTAC	-0.159
ATCGTCTC	0.117
ACTACTAC	-0.00327
TGCATGCA	-0.206
AGCTCGTA	-0.257
CCTTATTA	-0.0752
AAGGCATT	-0.246
AAAGGTGT	-0.0287

Sequence	PBM E-score
CAGGACTC	-0.151
CCCCAGAG	-0.173
ACCCACTC	-0.0396
AATTGACT	-0.0516
ATCGGCCA	0.187
ACCAGCCA	-0.207
CACGTACC	-0.152
GACGACGC	-0.211
CGTGTCAC	0.0133
ATACGTCA	-0.0294
AGCGGTCG	-0.0665
AAACTTGC	-0.0141
ATGTTCTA	0.0446
ACCTCCCA	-0.337
GACTGACC	-0.273
ACCCACAA	0.00936
AGAGCAGC	-0.24
TCCATTCA	-0.0823
CAACTCGG	0.139
GACCAATA	-0.149
AGTGCCAT	-0.211
GCACTAGC	-0.0613
CCGCCCTC	0.295
GGCTGCTA	-0.0639
CCGTCGGA	0.415

Sequence	PBM E-score
CAAGTTTC	-0.0901
ACCATGCT	-0.0722
CTAGCTGC	-0.243
AGGAGTAC	-0.136
AATTTTAT	0.217
CACCATTC	-0.163
ACCAATGA	-0.18
AGTCCGAA	0.425
ATAGTTGG	-0.122
CCCAAGGG	-0.238
ACCGGGAC	0.313
GTGACGAA	-0.152
AATAAGAG	0.137
TGCGTAAA	-0.0211
TATGCTCA	-0.0938
ATGTCCAA	0.0298
CCTTGCAA	-0.357
GCTGTGAA	-0.274
ATTCAAAC	-0.0321
ACGGGAGA	0.00568
ACAGGTTA	-0.251
CCCAACCA	0.0249
AGTAGTCG	-0.0443
GTTCACCA	-0.0632
AATTCATC	-0.0488

Sequence	PBM E-score
AGCCCCAG	0.00427
AATGAGCA	-0.124
GCGAAGAC	0.18
CGTTCTTC	-0.0105
GAAAACCC	0.246
CGGGCATC	0.133
GATAATAA	0.0865
CGGAAGTA	0.342
CCCCACCG	0.262
GATATTGC	0.0334
GCCGAAGC	0.272
AGGTGCCG	0.269
CCGTAGAG	0.0318
CGCTAAAC	0.0639
CAGTAAGC	-0.123
ATGCCCAG	-0.0681
GGGAGATA	-0.0385
CCGATCGC	0.228
AGAGAATC	-0.0802
CGAACACA	-0.0492
TCATCGAA	-0.174
AGTATGAT	-0.0096
CGCGGTTA	0.133
ACGTTTTG	-0.234
GGCGAGCA	0.0201

Sequence	PBM E-score
GTCTAAAA	-0.133
CCGGTGAG	0.217
GGATTGCA	0.0845
AAAGGTGA	-0.179
AGAAAAGG	-0.151
TACATACA	-0.112
GATGATAC	0.0473
ATAAACGG	0.216
GCTAATAA	-0.0659
GCCCGCGC	0.262
AATCGTCA	-0.173
CAGGCAGG	-0.198
CACCCCTG	-0.149
ACCGTAGG	-0.158
AATCGTGA	-0.0534
CGCGTTAA	0.0131
CGGCGACG	0.311
CCTATCCG	0.114
CCTGTACG	-0.132
AGTGTCGG	0.373
CACGTCGG	0.306
CAATCGGA	0.425
ACGTCAGT	-0.144
GACGTATA	-0.0885
CACGCCAA	-0.192

Sequence	PBM E-score
ATAAAAGC	-0.00834
AGTGGTTC	-0.122
TTACCAAA	-0.0662
GATGAGGC	-0.156
GAAGCGCA	0.246
GCCTCTAC	-0.279
CCAGCAGC	-0.108
AGGGTCAA	-0.00892
GGTAATAC	0.175
ATAAGTTA	-0.103
AGCCCTTA	-0.232
GTCGTAAC	-0.159
ACCGATAA	0.269
ACTAGCAG	-0.293
CTGTAGTC	-0.0825
AGCTCTAC	-0.2
ATACTAAG	-0.0703
CCTTGCCA	-0.16
GAATTCCC	0.155
CCGAGAAA	0.37
ATGCTGCC	-0.0605
CTCAGTCC	-0.0718
